Assay results: the supplement of paper PMC11417369
The list shows a part of the results.

Tested on: PfSIP2 AP2 domain 1 (GST-tagged)
Assay: gcPBM binding intensity (ln(normalized median fluorescence intensity)); higher = stronger DNA binding
Summary of the method: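 GST-tagged P. falciparum DNA-binding domains produced in E. coli were incubated for 1 h on an Agilent 4 × 180k array of primer-extended double-stranded 36-bp intergenic genomic probes with negative controls. Binding intensity is the highest Masliner-normalised natural-log median intensity across replicate spots of either probe orientation, with bound protein detected by Alexa488 anti-GST antibody at 488 nm.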

Sequence | gcPBM binding intensity (ln)
AATATTGCACCATTTTGTACATAATATATTCAAATA [XGTACX_site475] | 10.7
TGGTATCAAAAGAATACACACACACCGACATATATA [CACACA_site9265] | 6.92
GAATATAAACATATTACACACATCTATCTGTACATT [CACACA_site5114] | 7.04
GTGGGAAACATAAACACACACAAAAAGAAAAAATAG [CACACA_site4810] | 6.97
TACATACATACATACACACACACATATAAATACATA [CACACA_site4626] | 8.04
GTTTTATTTATTTCATGTACACAAAAAAGGTTTTAA [XGTACX_site6525] | 7.56
TCTCTAACTTTTAATACACACAAATAAATAAATAAA [CACACA_site6245] | 7.38
AATACATATATATATTGTACATATAGGGAAAAATTA [XGTACX_site2275] | 7.06
AAAATAAAATAATAAAATAAAATAATAATAAAATAA [TGCATGCA_negctrl_site401] | 6.68
AAAAAAAACGAACACACACACAAATATGTAAAAATA [CACACA_site6673] | 6.9
CACACAATGGCTAGCTGTACATAATATATATCTACA [XGTACX_site4691] | 7.12
TAAAAACAAAAATGTTGTACATAATATAAAACAATT [XGTACX_site6380] | 7.04
TATATAAATATACAAACACACATACAAACATATATA [CACACA_site4754] | 6.96
GAAAATAAAATAAATGCATGTAAATTTAATGTAATG [TGCATGCA_site996] | 6.87
AAAAAAAAAAAATGTGCATGCTATATATATATATAT [TGCATGCA_site727] | 9.58
TTAACAAATAGACACACACACACACGCAAAAAAAAA [CACACA_site6387] | 7.14
ATATATATATTTACATGTACACATCTATATATAAAC [XGTACX_site5581] | 8.31
TTTTTTTTTCATTATTGTACATTGAAACTTCATTTT [XGTACX_site6041] | 6.69
GCATAAATCAAACACACACACATATATATATATATA [CACACA_site2422] | 9.73
AATGAATATAGTACTGAATGTAATTTAAGGTTTTCC [CACACA_negctrl_site1548] | 6.77
TATAATGGATGCTAGCTGCACTAATAAGCAAAAATA | 8.3
GATGATATATATTAGCGTACATGTATATATACCATT [XGTACX_site6404] | 7.06
TAAATGAGAAGGACTGCACACTAAAATGGAAGGAGA [CACACA_site8449] | 7.6

Sequence | gcPBM binding intensity (ln)
AAAATTTCAAATAACACACACTAATATATATCTGTA [CACACA_site4904] | 6.98
GTGGACGAAATAGTTGTAAATTTATGTGCAAACCTC [XGTACX_negctrl_site564] | 7.4
ATATATATATCATATTGTACATACTTGTATTTATAT [XGTACX_site2432] | 8.72
TCCTTACCTATTAAAGCATGCTCGAATATATATTTT [TGCATGCA_site53] | 7.38
TATATTAAATATTACACACATACATTTAGTGTCAAA [CACACA_site1990] | 7.01
TGGGAGCACAGACACACACACACACCGATATATATA [CACACA_site8001] | 7.3
AACAAAATAAATGTATGTACATATATATATATATAT [XGTACX_site7974] | 9.68
ACTTATAAAATAACATGTACAAATATTTATTATATA [XGTACX_site133] | 7.25
AAAAAAAAAAGGTGTACATGCAAAATAAATTCTTAA [TGCATGCA_site556] | 6.95
TATGGTAACATATGCTGTACAATATAATATGTTTAA [XGTACX_site1601] | 6.94
TAAACATAAATATACACACAAACATATATGTATTTT [CACACA_site1214] | 6.94
AAATTATAAATACCTACACACTTATCAAAATAAATT [CACACA_site5280] | 6.86
AAAAAAAAAAAACACACACACACACCGACAAAATAT [CACACA_site8411] | 7.28
AATATTTTTTTATAAACACACATATATATAAATATA [CACACA_site3524] | 6.86
TAATAATTTATATATGCATGTCAAAATAATATTAAA [TGCATGCA_site12] | 7.06
TATATAAATATAATATGTACATATAATATGTATATA [XGTACX_site8120] | 6.97
TATATATTTTTATGTGTGCACTGTTTCATAAAAGAA | 10.9
TTATATGAAAAAATATGTACGTATAATGAGAAATAT [XGTACX_site8987] | 7.5
AAATAGATAAACTAAACACACAAAAAAAAAAAAAAT [CACACA_site1179] | 6.69
AAAATAACGAGTCAAACACACATATTTATATTTATA [CACACA_site7050] | 6.83
TAATATAACTACATAACACACGAAAATATATGAATC [CACACA_site3628] | 7.23
GTTATAAATGCATATACACACATACGTACATACATA [CACACA_site7655] | 7.4
TCATTAATCAGGTATGCATGCATAACTATTAAAAAT [TGCATGCA_site90] | 6.83

Sequence | gcPBM binding intensity (ln)
TCTTTTTTTTTTATTTGTACTTATTTTTTTCAAAAA [XGTACX_site3403] | 7.36
AATAATAATATATGTAGTACACATTTCCATTATGTT [XGTACX_site3708] | 7.07
AAAAAAAAAAAAAAAACACACATTTCTTTTTCATAT [CACACA_site11] | 7.64
TTAATTATATATAAAAGTACTTATTTTTCCATATAA [XGTACX_site3033] | 6.95
TAATAGGAAATTATAGGTACACATACAAATAAATAA [XGTACX_site3587] | 6.9
AGAAAAAATAAAAATAGTACTCAAAAAATTATGAAT [XGTACX_site4908] | 6.96
ACATAAATAATAAAAACACACATATGTACAGATATA [CACACA_site5112] | 7.12
ATGTAGATATATATATGTACTAATTAGTAGTTTACG [XGTACX_site6275] | 7.24
AATGGTACATGATACACACACGCACATATATATATT [CACACA_site3425] | 6.9
AGAAAAAAAAAACACACACACACACCCTCAATATAA [CACACA_site39] | 6.94
ATTTATATATTGCCCACACACATGTGATTATTTATA [CACACA_site1714] | 7.4
ATATTAAAAAGAAGTGTGCGCAAAACATTAACTTGA | 7.32
TAAATAAACCTGACTTGTACATGTAAAATAAATATA [XGTACX_site1667] | 6.99
AATGGATGGTCCAAATGTACATATATATATATATAT [XGTACX_site4800] | 9.35
TATGCACCCAGACACACACACACAACTAAAAAATAA [CACACA_site2567] | 10.7
TTTGTAGATTTTGTAACACACACATATATATACATA [CACACA_site8757] | 6.97
AAAATATAATATATTGCACACAAAAAGTGAATTATT [CACACA_site8489] | 6.95
TACCATTATTTTAAGTGTACATACTAATTTATATAT [XGTACX_site6548] | 7.21
TCTTTCTATTTATAATGTACTCAAAATTATTCTATA [XGTACX_site4867] | 7.13
AAATTGTGTGAAATATATTAATATTATTATTATTAT [TGCATGCA_negctrl_site189] | 6.98
TTTTACCACTAAAAATGTACAAAAAAAAAAAAAAAA [XGTACX_site4226] | 6.91
CCTTGCATTTATTATACACACACAAAAAAATATATA [CACACA_site7964] | 7.8
TTGCAAATATATGGTTGTACTCAAAAAAAAAAAAAA [XGTACX_site6975] | 7.03

Sequence | gcPBM binding intensity (ln)
CAAAAATAACGAGTCAAACACACATATATATATATA [CACACA_site2038] | 9.22
AAAGGGATAACACCAAAAAAAATAAAAATAAAAATA [GTGCAC_negctrl_site680] | 7.11
TCAAGAATTTTAAAGAGTACATAAAACAATAATATA [XGTACX_site3923] | 6.91
ATGCGTATACTAAGAACACACAAGTTACTTGGTGTT [CACACA_site1625] | 6.71
ATTAATGATTTTTGTTGTACATTATTAATTTACATT [XGTACX_site544] | 7
TATTTTATATTTCATTTGTTATTTTTCTTGGTTCTA [CACACA_negctrl_site33] | 6.88
CATACATACATACATACACACATACATATGTATTTA [CACACA_site5384] | 7.98
CAACACTTTCAAAAATGTACGTACAAATGTATTTTA [XGTACX_site6713] | 7.11
AGTTTCCATATGAGGTGTACATATATAATTTATTAT [XGTACX_site2369] | 7.32
ACAAAATAAAGACACACACACAAACACAAAAAAATA [CACACA_site7568] | 7.14
TTTTTTTTCTAAATTATATGAAAATATATGTTATGT [GTGCAC_negctrl_site85] | 7.01
TACATAAACATTTATACACACATTATAAATACATAT [CACACA_site4386] | 7.08
ACAATTTTAAAATGAACACACATGTTTTTCTTACTT [CACACA_site1014] | 7.02
ATTTTCTATTTTATTTGTACGTAATTTAATTTTTTT [XGTACX_site3609] | 7.5
TCCCAATTTCTATCCTGTACAGACATAAATATATAC [XGTACX_site5937] | 7.4
AAGTAATTTGTTGACACACACACACGCATACCTATA [CACACA_site7140] | 7.15
ATAAAGATTAATAAAATAAAATTCCGCAAACATATA [CACACA_negctrl_site244] | 6.84
TTTTGAAATTTTTGTGTTTTTCCTTTTTATTTTATA [CACACA_negctrl_site1740] | 6.44
ATAAATCCATGTAACTGTACTTTTTTTTTTTTTTTT [XGTACX_site7373] | 7.44
ATTATATATATATATATATATATATATATATTATAT [CACACA_negctrl_site234] | 7.97
